# Measurements as given in ChEMBL document CHEMBL4888484, “Replenishing the malaria drug discovery pipeline: Screening and hit evaluation of the MMV Hit Generation Library 1 (HGL1) against asexual blood stage Plasmodium falciparum ,using a nano luciferase reporter read-out” (2022).
# Out of some 150,000 compounds screened, about 540 (0.36%) showed an effect of 50% or more. Some of the results follow.
# System: Plasmodium falciparum
# Assay: Primary screen in NF54 nanoGlo assay, in single point, at 2uM, 72h; a lower Z score goes with more inhibition
# Type: functional, Erythrocyte
# Conditions: timepoint 72 hour
SMILES,% Inhibition [%],Z score
CC(C)[C@H](NCc1cc(C(N)=O)cs1)C(C)(C)O,1,-0.15
Cc1nccn1C[C@H](O)COc1ccccc1Cl,2,-0.27
CCC(CC)[C@@H](O)CNC(=O)NCc1nc(C(F)F)no1,-11,1.67
Cc1nc(NCc2c(F)cccc2F)sc1-c1ccn(Cc2ccsc2)n1,-3,0.45
CCOCCC1(CNC(=O)[C@H]2CC(=O)N(C)C2)CCCC1,-4,0.34
CCc1cc(N2CCC(NCc3n[nH]c4c3CCC4)CC2)nc(N(C)C)n1,9,-1.62
O=C(OC[C@H]1CCCCN1C(=O)c1cc2cccc(F)c2o1)N1CCOCC1,3,-0.42
Cc1cccc(NC(=O)N2C[C@@H]3CC[C@H]2CN(Cc2ccccn2)C3)c1C,-2,0.27
CCCc1nc2cc(CCC(=O)Nc3cc(Cl)c(OC)cc3OC)ccc2[nH]1,-3,0.41
c1cnc(N2CCC3(CCCC3)CC2)cn1,5,-0.45
CCC(CC)n1ccc(C(=O)O[C@@H](C)c2ccccn2)n1,-1,0.12
CCOC(=O)C1(CC2CC2)CCN(Cc2cnc(-c3ccc(Cl)cc3)nc2)CC1,1,-0.26
C[C@H](N[C@H]1CC[C@@H](CO)CC1)c1cc(Cl)cc(Cl)c1,-8,0.73
CN(CCC[C@H]1CCCO1)C(=O)Nc1cccnc1Oc1ccc(F)cc1,-7,0.95
COC(=O)c1cnc(CO)c(Cl)c1,3,-0.31
COC[C@@H]1[C@H](NC(=O)c2c(F)cccc2OC)[C@H]2CCO[C@H]21,4,-0.5
CCN=C(NCc1nnc2n1CCC2)N1CCC2(CCC(C)CC2)C1 (stereo not given),9,-1.43
CN(CCCN1C(=O)NC(C)(C)C1=O)Cc1cccc(C#N)c1,-2,0.31
CC(C)N(CC(N)=O)C(=O)[C@H]1CC12CCCC2,-2,0.41
Cc1nc(C)c(C(=O)N2Cc3cnc(CC(C)C)nc3C2)s1,-16,2.07
C[C@H](O)CN1CCN(C(=O)c2ccc(-c3ccc(F)cc3)n2C)CC1,-5,0.97
CCCC(=O)N1CCC(NCc2nc(C3CCCCC3)no2)CC1,-1,0.18
COCCN1C(=O)N[C@@](Cc2ccc(F)cc2)(C2CCN(C(=O)c3sccc3C)CC2)C1=O,-3,0.43
CC(C)CNC(=O)C1(NCc2nnsc2Cl)CCCC1,-13,1.54
Cc1nc(CNCc2ccc3c(c2)OCCO3)c2ccccn12,5,-0.48
CCOc1ccc(-c2c(-c3ccccc3)ncn2Cc2nnn[nH]2)cc1CO,-2,0.43
Cc1cc(C)c(C(=O)Nc2nc(C)ns2)c(C)n1,-1,0.15
CC(C)(C)C[C@H]1CCCN1C(=O)c1nccnc1N,1,-0.24

SMILES,% Inhibition [%],Z score
COc1ccc([C@H]2OCC[C@@H]2NC(=O)Nc2ccccc2-n2nccc2C)cn1,-11,1.88
CCC(C(=O)Nc1nc[nH]n1)(C(F)(F)F)C(F)(F)F,-10,0.92
O=C(NC1CCCC1)[C@H](Cc1ccccc1)NC(=O)N1CC(O)=Nc2ccccc21,-9,0.92
CCc1ccc([C@H](CO)NC(=O)c2cccc3c2CCOC3)cc1,-3,0.32
O=c1ccc(C2CC2)nn1CC1CCN(CC2CCCC2)CC1,0,-0.04
Cc1nn(C)c2nc(NCCCc3csc(N)n3)sc12,-6,0.92
Cc1ccccc1CN1CCCN(Cc2nc(N)nc(N)n2)CC1,4,-0.71
CCNC(=O)c1ccc(N2CCC[C@H](c3nncn3C3CC3)C2)nn1,-18,2.08
CC(NC(=O)C1CCN(C)C(=O)C1)c1cccnc1 (stereo not given),-2,0.32
Cn1ncc(CNC(=O)c2cccc(C(F)F)c2F)n1,-7,1.29
CC(C)Oc1cccc(C(=O)[C@H]2CCCN(c3ncnc4[nH]ccc34)C2)c1,2,-0.38
COc1ccc(NC(=O)N2CCN(C(=O)c3ccc(F)cc3)CC2)c(C)n1,-13,1.92
COCCN1C[C@@H]2CC[C@H]1CN(C(=O)c1cc3ccc(OC)cc3n1C)C2,-8,1.33
N#Cc1cccc(OCC2CC(F)(F)C2)n1,-8,0.97
CCCc1noc(CCC(=O)NCC(C)(C)c2ccccc2C)n1,2,-0.21
CN(C(=O)C(=O)Nc1ccc2nccnc2c1)C1CCC(C)(C)CC1,-8,0.92
Cn1c(C(F)(F)F)nn(CC(=O)Nc2ccc(F)c(Cl)c2)c1=O,13,-1.53
CN1CCN([C@H]2CN(c3ccc(Cl)cn3)C[C@@H]2O)CC1,-11,1.06
CC1CCN(CCC[C@H](NCCn2ccnn2)c2ccc(F)cc2)CC1,1,-0.13
Cn1nc(C(=O)N(CCO)CC2CCCCC2)c2c1CCCC2,6,-0.71
COCCN(CC(=O)N1N=C(c2ccc(OC)cc2)C[C@H]1c1ccccc1)C(=O)C1CCCC1,-15,1.79
CC(C)c1ncc(C(=O)Nc2ccccc2-c2ncc[nH]2)s1,12,-1.2
Cc1noc(C)c1CS(=O)(=O)c1ccccc1Br,2,-0.42
O=C(COc1ccccc1)N1CCCN(S(=O)(=O)N2CCCC2)CC1,1,-0.08
COCc1nc(-c2ccoc2)n(CC(F)(F)F)n1,-4,0.73
O=C(N1CCc2c(nc[nH]c2=O)C1)C1(c2ccccc2)CCCC1,-1,0.18
Nc1c2c(-c3ccccc3Cl)nc(NC[C@H]3CCCO3)nc2nn1-c1ccccc1,-14,1.36
